Among all 310,000 compounds or so, about 2,200 (0.71%) showed an effect of 50% or more. Effects have a minus sign here. The list shows a part of the results.

human ether-à-go-go-related gene (hERG) potassium channel, sequence (Q12809 whole entry, looked up): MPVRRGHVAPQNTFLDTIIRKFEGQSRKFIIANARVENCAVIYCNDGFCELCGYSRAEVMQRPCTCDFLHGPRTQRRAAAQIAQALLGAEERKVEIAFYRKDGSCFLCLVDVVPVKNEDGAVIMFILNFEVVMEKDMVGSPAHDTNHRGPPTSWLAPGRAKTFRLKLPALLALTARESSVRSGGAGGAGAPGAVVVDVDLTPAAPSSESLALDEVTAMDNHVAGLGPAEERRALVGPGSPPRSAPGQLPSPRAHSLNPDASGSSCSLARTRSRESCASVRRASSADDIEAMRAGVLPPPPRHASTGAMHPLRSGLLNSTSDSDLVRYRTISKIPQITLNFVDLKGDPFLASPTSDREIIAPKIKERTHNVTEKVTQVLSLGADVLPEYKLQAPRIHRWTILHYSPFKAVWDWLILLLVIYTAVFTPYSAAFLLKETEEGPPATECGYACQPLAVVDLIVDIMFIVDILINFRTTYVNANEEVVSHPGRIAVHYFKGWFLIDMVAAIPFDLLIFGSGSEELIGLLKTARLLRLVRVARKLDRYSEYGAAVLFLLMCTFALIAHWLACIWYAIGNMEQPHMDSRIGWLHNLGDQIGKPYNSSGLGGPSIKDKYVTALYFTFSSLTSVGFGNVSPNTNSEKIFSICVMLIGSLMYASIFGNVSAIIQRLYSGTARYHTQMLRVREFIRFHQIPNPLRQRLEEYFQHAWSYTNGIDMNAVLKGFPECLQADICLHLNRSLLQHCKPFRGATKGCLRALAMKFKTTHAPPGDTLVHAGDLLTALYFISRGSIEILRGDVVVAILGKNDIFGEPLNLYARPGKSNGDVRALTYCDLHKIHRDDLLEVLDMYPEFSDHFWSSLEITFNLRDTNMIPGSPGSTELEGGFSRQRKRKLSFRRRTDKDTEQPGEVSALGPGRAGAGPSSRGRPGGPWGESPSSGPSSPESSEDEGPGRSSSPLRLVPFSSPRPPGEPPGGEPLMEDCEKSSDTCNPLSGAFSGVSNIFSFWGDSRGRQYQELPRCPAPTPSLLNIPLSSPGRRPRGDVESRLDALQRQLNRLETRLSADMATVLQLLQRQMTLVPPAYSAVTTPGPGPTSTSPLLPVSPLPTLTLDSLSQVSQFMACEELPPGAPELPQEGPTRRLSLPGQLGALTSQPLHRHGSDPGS

The assay has as its target human ether-à-go-go-related gene (hERG) potassium channel (human, UniProt Q12809). Briefly: primary screen, population patch clamp on CHO cells stably expressing hERG.
For the molecule `Cc1nc(S(=O)(=O)c2cccc(Cl)c2)nc2c1CCC2`, the “hERG current change (%, negative = inhibition) at 1uM” value was found to be 7%.

For `Cc1ccc(S(=O)(=O)Nc2cccc(NC(=O)CN3CCCCC3)c2)cc1.O=C(O)C(=O)O`, the “hERG current change (%, negative = inhibition) at 1uM” value worked out at 3.96%.

For the molecule `O=C1c2ccc([N+](=O)[O-])cc2C(=O)N1c1ccc(Cl)cn1`, the “hERG current change (%, negative = inhibition) at 1uM” value amounted to 17.4%.

In the case of `Cc1cc(-c2ccc(S(=O)(=O)N(C)Cc3ccccc3)cc2)on1`, the “hERG current change (%, negative = inhibition) at 1uM” value is 14.6%.

`COc1ccc(Oc2c(Cl)cnn(-c3ccccc3)c2=O)cc1`: the “hERG current change (%, negative = inhibition) at 1uM” value is on record as -9.32%.

With `O=C(Cn1cccn1)N1CCCC(N2CCN(Cc3ccc4c(c3)OCO4)CC2)C1` (centres unmarked), the “hERG current change (%, negative = inhibition) at 1uM” value was determined as 15.5%.

Turning to `Cc1csc(=O)n1CC(=O)Nc1ccc(Cl)cc1F`, the “hERG current change (%, negative = inhibition) at 1uM” value is given as 1.89%.

For the molecule `CCCCc1cc2c(s1)CCCC/C2=N/O`, the “hERG current change (%, negative = inhibition) at 1uM” value is 2.41%.

As for `O=C(c1ccc(F)cc1)n1cc(C(=S)N2CCOCC2)c2ccccc21`, the “hERG current change (%, negative = inhibition) at 1uM” value was 13.3%.

Regarding `CC1CCN(c2ccc3nnc(CCC(=O)Nc4ccc(F)c(F)c4)n3n2)CC1`, the “hERG current change (%, negative = inhibition) at 1uM” value is 7.9%.

In the case of `CC(C)n1nc(C(=O)Nc2nc3ccccc3[nH]2)c2ccccc2c1=O`, the “hERG current change (%, negative = inhibition) at 1uM” value amounted to 7.7%.

Regarding `CNC(=S)N(CCc1ccccc1)Cc1cc2cc(OC)c(OC)cc2[nH]c1=O`, the “hERG current change (%, negative = inhibition) at 1uM” value worked out at 0.771%.

Consider `O=C([O-])CC1S/C(=N/N=C/C=C/c2ccccc2)NC1=O.[Na+]` (centres unmarked), for which the “hERG current change (%, negative = inhibition) at 1uM” value is 8.33%.

With `O=C(Nc1ccccc1Cl)N1C2CCC1CC(O)(c1cccnc1)C2` (centres unmarked), the “hERG current change (%, negative = inhibition) at 1uM” value is reported as -8.38%.

Consider `O=C1N=c2ccccc2=C1c1sc(NS(=O)(=O)c2ccccc2)nc1O`, for which the “hERG current change (%, negative = inhibition) at 1uM” value amounted to 7.09%.

As to `C/C(=N\NC(=O)c1ccc(CSc2nc(C)cc(C)n2)cc1)c1ccco1`, the “hERG current change (%, negative = inhibition) at 1uM” value is on record as -6.01%.

For the molecule `CCc1nnc(NC(=O)C2Cc3ccccc3CN2S(=O)(=O)c2ccc(C)cc2)s1` (centres unmarked), the “hERG current change (%, negative = inhibition) at 1uM” value is 16.1%.

`Cc1cc(C)cc(OCC(=O)OCC(=O)NCc2cccs2)c1`: the “hERG current change (%, negative = inhibition) at 1uM” value amounted to 11.9%.

For the molecule `COC(=O)C1=C(NC(=O)COc2ccc(Cl)cc2Cl)CCS1`, the “hERG current change (%, negative = inhibition) at 1uM” value came to 13.1%.

`O=C(Nc1ccccc1)Nc1ccccn1`: the “hERG current change (%, negative = inhibition) at 1uM” value was 12.4%.

Regarding `CSc1nsc(SCC(=O)NCc2ccc(C)cc2)n1`, the “hERG current change (%, negative = inhibition) at 1uM” value worked out at 12.7%.

On to `CN(C)S(=O)(=O)c1cccc(C(=O)NC2CCCc3ccccc32)c1` (centres unmarked), for which the “hERG current change (%, negative = inhibition) at 1uM” value is 8.67%.

For the molecule `COc1ccc(C=C(C#N)C#N)c(CSc2ccccn2)c1`, the “hERG current change (%, negative = inhibition) at 1uM” value amounted to 11.1%.

With `CCOc1ccc(S(=O)(=O)N2CCN=C2c2ccccc2)c(C)c1C`, the “hERG current change (%, negative = inhibition) at 1uM” value was -0.657%.

As for `Cc1ccc(NC(=O)CSc2nnc3c(n2)[nH]c2ccccc23)cc1`, the “hERG current change (%, negative = inhibition) at 1uM” value was 8.92%.

Consider `CC(C)OC(=O)c1ccc(S(N)(=O)=O)o1`, for which the “hERG current change (%, negative = inhibition) at 1uM” value worked out at 5.04%.

Regarding `CCc1ccc(NC2=NCC(=O)N2c2ccc3c(c2)OCCO3)cc1`, the “hERG current change (%, negative = inhibition) at 1uM” value amounted to 9.34%.

Take `Cc1cc(C)c2c(N=CN(C)C)c(C(=O)N3CCN(c4ncccn4)CC3)sc2n1`: the “hERG current change (%, negative = inhibition) at 1uM” value is recorded as 3.59%.

As for `CC12CCC(C(=O)Nc3ccc(Cl)cc3)([C@H](Br)C1=O)C2(C)C` (some centres unmarked), the “hERG current change (%, negative = inhibition) at 1uM” value came out at 7.5%.

For the molecule `CNc1ccccc1C(C)(C)c1cc(-c2cccc(OC)c2)no1`, the “hERG current change (%, negative = inhibition) at 1uM” value was determined as 8.57%.

In the case of `O=C(Nc1ccc(N2CCOCC2)cc1)C1CC1`, the “hERG current change (%, negative = inhibition) at 1uM” value is 14%.

Regarding `O=C(NC1CCCCC1)C(=O)c1c(-c2ccccc2)[nH]c2ccccc12`, the “hERG current change (%, negative = inhibition) at 1uM” value worked out at 9.08%.

As to `O=C(Nc1ccccc1Cl)N1CCN(c2ccc3nncn3n2)CC1`, the “hERG current change (%, negative = inhibition) at 1uM” value worked out at 1.61%.

Consider `CCOP(=O)(Cc1ccc(C(C)(C)CC(C)=O)o1)OCC`, for which the “hERG current change (%, negative = inhibition) at 1uM” value came out at 9.28%.

Take `O=C(O)CSc1nnc(COc2ccc(Br)cc2)n1-c1ccccc1`: the “hERG current change (%, negative = inhibition) at 1uM” value is recorded as 9.98%.

Turning to `CCN(CC)C(=O)c1nc[nH]c1C(=O)N(C)Cc1ccccc1`, the “hERG current change (%, negative = inhibition) at 1uM” value is 13.7%.

As for `CC1(c2ccccc2)NC(=O)N(CC(=O)NC(=O)NCc2ccco2)C1=O` (centres unmarked), the “hERG current change (%, negative = inhibition) at 1uM” value is 10.3%.

For the molecule `COc1ccc(NC(=O)CNC(=O)C2CCCCC2)cc1`, the “hERG current change (%, negative = inhibition) at 1uM” value is given as 11.8%.

Turning to `CC(=O)Oc1ccc(C(=O)NCc2ccc3c(c2)OCO3)cc1`, the “hERG current change (%, negative = inhibition) at 1uM” value was determined as 9.9%.

Regarding `COCCn1c(SC(C)C(=O)Nc2ccc(N3CCOCC3)cc2)nnc1-c1ccncc1` (centres unmarked), the “hERG current change (%, negative = inhibition) at 1uM” value turned out to be 6.75%.

For `O=C(COC(=O)c1ccc(S(=O)(=O)N2CCCC2)cc1)Nc1cccc(Cl)c1`, the “hERG current change (%, negative = inhibition) at 1uM” value is reported as 4.86%.

As to `C/C(CC(=O)Nc1ccc(Cl)cc1C(F)(F)F)=N\NC(N)=S`, the “hERG current change (%, negative = inhibition) at 1uM” value was 12.1%.

Consider `Clc1ccc(Sc2cc(N3CCOCC3)nc(-c3ccccc3)n2)cc1`, for which the “hERG current change (%, negative = inhibition) at 1uM” value stood at 10.5%.

For `CC1CCCN(c2ccc(C(=O)OCC(=O)N3c4ccccc4Sc4ccccc43)cc2[N+](=O)[O-])C1` (centres unmarked), the “hERG current change (%, negative = inhibition) at 1uM” value was determined as 8.29%.

Regarding `Cc1nc([N+](=O)[O-])cn1-c1ccc(N)cc1`, the “hERG current change (%, negative = inhibition) at 1uM” value is 6.44%.

For the molecule `C=CCc1cccc2cc(NC(C)=O)c(=O)oc12`, the “hERG current change (%, negative = inhibition) at 1uM” value is given as -4.86%.

As for `Nc1cccc(CP(=O)(c2ccccc2)c2ccccc2)c1`, the “hERG current change (%, negative = inhibition) at 1uM” value is 17.1%.

As for `Cc1ccc(S(=O)(=O)Nc2c(C)n(C)n(-c3ccccc3)c2=O)cc1`, the “hERG current change (%, negative = inhibition) at 1uM” value is listed as 9.71%.

Take `COc1cc(/C=N/NC(=S)N/N=C/c2cc(OC)c(OC)c(OC)c2)cc(OC)c1OC`: the “hERG current change (%, negative = inhibition) at 1uM” value is -3.01%.

Turning to `C/C=C/Cn1cccc(C(=O)Nc2ccc(OC)cc2)c1=O`, the “hERG current change (%, negative = inhibition) at 1uM” value was determined as 3.63%.

Take `CN(C)/C(CN1CCN(C=O)CC1)=C1\N=C(c2ccccc2)OC1=O`: the “hERG current change (%, negative = inhibition) at 1uM” value is given as -14.8%.

For the molecule `CCCSC(=S)c1c(C)[nH]n(-c2ccccc2)c1=O`, the “hERG current change (%, negative = inhibition) at 1uM” value was 13.3%.

In the case of `Cc1ccc(OCc2cc(C(=O)NC(C)Cc3cccnc3)no2)cc1C` (centres unmarked), the “hERG current change (%, negative = inhibition) at 1uM” value is -34%.

For `Cn1c(SCC#N)nc2ccccc2c1=O`, the “hERG current change (%, negative = inhibition) at 1uM” value was found to be 10.7%.

`N/C(=N\OC(=O)CCC1CCCC1)c1ccc(Cl)cc1`: the “hERG current change (%, negative = inhibition) at 1uM” value was determined as 15.3%.

As to `CC1(C)Cc2ccccc2-c2[nH]c(=S)[nH]c(=O)c21`, the “hERG current change (%, negative = inhibition) at 1uM” value amounted to 11.8%.

Consider `C=C(C)CSC1=C(C#N)C(c2ccsc2)CC(=O)N1` (centres unmarked), for which the “hERG current change (%, negative = inhibition) at 1uM” value was determined as 0.848%.

`CCOc1ccc(S(=O)(=O)NCCC(=O)Nc2ncccc2C)cc1`: the “hERG current change (%, negative = inhibition) at 1uM” value worked out at 10.5%.

Turning to `Cc1csc(N)n1`, the “hERG current change (%, negative = inhibition) at 1uM” value was determined as 10.7%.

(Values after PMC4336329 (PLoS ONE, 2015).)
